# Test results taken from PubChem BioAssay AID248 (DTP/NCI, 2004).
# Inconclusive results and toxic doses are left out. A number of entries come with more than one value. Only these are listed. The source may hold further records. Results that share an entry differ for a reason that is not stated; some may be repeats, others may stem from another dose, organism or construct than stated.
# System: L1210 leukemia ip in BDF1 mice, survival T/C
# Experiment: NCI In Vivo Anticancer Drug Screen. Data for tumor model L1210 Leukemia (intraperitoneal) in B6D2F1 (BDF1) mice
# Details: endpoint: mean survival time; dose: 20.0 mg/kg/injection; schedule: Q01DX001 (ip); vehicle: saline; higher = longer survival
smiles,measurement,value
CS(=O)(=O)OCCN(CCOS(C)(=O)=O)c1cccc(F)c1,T/C,"98 % of control, 106 % of control, 151 % of control"
